# From PubChem BioAssay AID485281 (National Center for Advancing Translational Sciences (NCATS), 2010)
# Hit rate of the full screen: of about 350,000 compounds, about 260 (0.074%) were called active. Inconclusive means that the source gave no clear call. Such entries were picked first, then a sample of the others. Calls come from the whole dose curve; as a rule, active = well fitted inhibition curve with a large enough effect; inconclusive = small, poorly fitted or top-dose-only effect; inactive = no such curve, though single readings can be large or run the other way. Potencies of inconclusive entries are doubtful fits and often do not repeat.
# Molecular target: Ferritin light chain (Equus caballus) (UniProt P02791)
# Test: qHTS Assay for Identification of Novel General Anesthetics; note: nearly all actives have a fitted effect of over 20% in size
# Details: apoferritin/1-aminoanthracene competitive binding, fluorescence; series mostly up to 77.5 µM
# Method in brief: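 In PBS, apoferritin at 10 uM is loaded with 1-AMA from a 50% saturated solution. After 10 min of compound exposure at ambient temperature, reduced 535 nm fluorescence indicates probe displacement.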
# Potency is the fitted concentration of half-maximal effect; tags give direction and shape of the fitted curve.
# Sequence of UniProt P02791 (P02791 whole entry, looked up): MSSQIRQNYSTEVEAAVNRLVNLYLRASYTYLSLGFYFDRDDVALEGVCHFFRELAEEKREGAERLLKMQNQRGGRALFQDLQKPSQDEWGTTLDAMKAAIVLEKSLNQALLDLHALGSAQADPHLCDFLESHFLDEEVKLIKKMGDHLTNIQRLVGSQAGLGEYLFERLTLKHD
row,Compound,Potency
1,O=[N+]([O-])c1ccc(CNc2ccc(F)cc2)s1,"inconclusive: 20 µM [inhibitor, partial curve]"
2,COc1ccc(O)c(CNc2ccccc2F)c1,"inconclusive: 22.4 µM [inhibitor, partial curve]"
3,CCOC(=O)c1ccoc1CSCc1ccc(C(=O)OC)o1,"inconclusive: 35.5 µM [inhibitor, partial curve]"
4,COc1ccc(C(=O)COC(=O)CCN2C(=O)C3C4CC(C(Br)C4Br)C3C2=O)cc1 (stereo not drawn),"inconclusive: 28.2 µM [inhibitor, partial curve]"
5,N#Cc1c(SCC(N)=O)nsc1SCc1ccccc1Cl,"inconclusive: 11.2 µM [inhibitor, partial curve]"
6,COc1ccccc1-n1cnc2cc(NCc3ccco3)ccc21,"inconclusive: 35.5 µM [inhibitor, partial curve]"
7,COc1cccc(Cn2nnc(C(=O)NCc3ccccc3Cl)c2N)c1,"inconclusive: 3.55 µM [inhibitor, full curve]"
8,Cc1ccc(NCC(O)C(O)C(O)CO)c(N=Nc2ccccc2)c1C (stereo not drawn),"inconclusive: 39.8 µM [inhibitor, partial curve]"
9,CC1CCN(c2ccc(C(=O)NCCc3ccccc3)cn2)CC1,"inconclusive: 31.6 µM [inhibitor, partial curve]"
10,O=C(Nc1ccc(N2CCCC2)cc1)C(c1ccccc1)c1ccccc1,"inconclusive: 39.8 µM [inhibitor, partial curve]"
11,CS(=O)(=O)N(CC(=O)O)c1ccc(C23CC4CC(CC(C4)C2)C3)cc1,"inconclusive: 25.1 µM [inhibitor, partial curve]"
12,CSc1nnc(-c2sccc2-n2cccc2)o1,"inconclusive: 31.6 µM [inhibitor, partial curve]"
13,Cc1ccc(-n2c(=O)c3c(C)c(C(=O)N(C)C)sc3n(CC(=O)N(C)c3ccccc3)c2=O)cc1C,"inconclusive: 0.891 µM [inhibitor, full curve]"
14,Cc1ccc(CSc2nc(N)cc(N)n2)cc1,"inconclusive: 12.6 µM [inhibitor, partial curve]"
15,S=c1[nH]nc(C2CCCCC2)n1/N=C/C(Cl)=C\c1ccccc1,"inconclusive: 25.1 µM [inhibitor, partial curve]"
16,CC(C)C[C@H](N)C(=O)N[C@H](C(=O)N[C@H](C(=O)N[C@@H](Cc1ccc(O)cc1)C(=O)N1CCC[C@H]1C(=O)N[C@@H](Cc1c[nH]c2ccccc12)C(=O)N[C@H](C(=O)N[C@@H](CCC(N)=O)C(=O)N[C@@H](CCCN=C(N)N)C(=O)O)[C@@H](C)O)C(C)C)C(C)C,inactive
17,Cc1ccc(CSc2ncc(Cl)c(C(=O)NCCc3ccc(S(N)(=O)=O)cc3)n2)cc1,"inconclusive: 56.2 µM [inhibitor, single point]"
18,CN1Cc2c(N3CCOCC3)nc(SCc3ccccc3)c(C#N)c2CC1(C)C,"inconclusive: 56.2 µM [inhibitor, partial curve, poor fit]"
19,CC1=NN(C(=O)CSCc2ccccc2)C(O)(c2ccc(Cl)cc2)C1 (stereo not drawn),"inconclusive: 31.6 µM [inhibitor, partial curve]"
20,O=C(Nc1ccc2c(c1)OCCO2)c1cccc(Br)c1,inactive
21,Cc1cc(C)cc(NC(=O)NCc2nnc(SCc3ccccc3)n2C)c1,"inconclusive: 39.8 µM [inhibitor, single point]"

row,Compound,Potency
1,COc1ccccc1CNS(=O)(=O)c1ccc(Br)s1,"inconclusive: 28.2 µM [inhibitor, partial curve]"
2,COC(=O)c1[nH]c2ccc(Br)cc2c1NC(=O)C(C)N1CCN(C2CCCCC2)CC1 (stereo not drawn),"inconclusive: 28.2 µM [inhibitor, partial curve]"
3,CCOC(=O)c1sc2nc(CSc3ccccc3)nc(N3CCC(C(N)=O)CC3)c2c1C,"inconclusive: 28.2 µM [inhibitor, partial curve]"
4,O=C(c1ccc(Cn2cc(Cl)cn2)cc1)N1CCN(c2ccccc2)CC1,"inconclusive: 35.5 µM [inhibitor, partial curve]"
5,Cc1nn(-c2ccccc2)nc1C(=O)NNC(=O)c1cccc2ccccc12,"inconclusive: 15.8 µM [inhibitor, partial curve]"
6,O=C(NNc1c(Cl)cc(Cl)cc1Cl)c1cccc([N+](=O)[O-])c1,"inconclusive: 17.8 µM [inhibitor, single point]"
7,CCOc1ncccc1C(=O)Oc1ccc2c(c1)OCO2,"inconclusive: 20 µM [inhibitor, partial curve]"
8,CCSc1nnc2ccc(-c3ccc(OC)c(OC)c3)nn12,inactive
9,O=S(=O)(c1cccc2cccnc12)N1CCOCC1,inactive
10,Nc1nc(NCCc2ccccc2)nc(NCCO)c1[N+](=O)[O-],inactive
11,CN(Cc1nccs1)C(=O)c1cc(COc2cccc3cnccc23)on1,"inconclusive: 22.4 µM [inhibitor, partial curve]"
12,Cc1cc(C)c(NC(=O)C(C)n2nc(-c3ccc(C)c(C)c3)ccc2=O)c(C)c1 (stereo not drawn),"inconclusive: 4.47 µM [inhibitor, full curve]"
13,Fc1ccccc1N=C1NN=C(c2ccccc2)CS1,inactive
14,COc1ccc(/C=C/C(=O)NCC2COc3ccccc3O2)cc1OC (stereo not drawn),"inconclusive: 35.5 µM [inhibitor, single point]"
15,Cc1ccccc1CN(c1ccc(C(=O)Nc2ccccc2C(=O)N2CCCC2)cc1)S(C)(=O)=O,"inconclusive: 20 µM [inhibitor, partial curve]"
16,CCOC(=O)c1cc2c(C)[nH]c(C)c2cc(C(=O)OCC)c1=O,inactive
17,CCCC(=O)Nc1nc(C)c(-c2csc(Nc3ccccc3C)n2)s1,"inconclusive: 11.2 µM [inhibitor, partial curve]"
18,COc1ccc(OCc2cc(C(=O)N(C)CC3CCCCO3)no2)c(Cl)c1 (stereo not drawn),"inconclusive: 15.8 µM [inhibitor, partial curve]"
19,CN(Cc1ccccc1)C(=O)c1ccc2c(c1)OCCO2,"inconclusive: 44.7 µM [inhibitor, partial curve, poor fit]"
20,Cc1cc(C)cc(OC(=O)C23CCC(C)(C(=O)O2)C3(C)C)c1 (stereo not drawn),"inconclusive: 14.1 µM [inhibitor, partial curve]"
21,O=C(Nc1ccc(F)cc1)C(=O)c1cn(CC(=O)N2CCOCC2)c2ccccc12,"inconclusive: 15.8 µM [inhibitor, partial curve]"

row,Compound,Potency
1,CC1CCCN(c2ccc(/C=C(\C#N)c3nn(-c4ccccc4)c(N)c3C#N)cc2[N+](=O)[O-])C1 (stereo not drawn),"inconclusive: 28.2 µM [inhibitor, partial curve]"
2,FC(F)(F)c1ccccc1NC(=S)N1CCN(c2ccccn2)CC1,inactive
3,O=C(NCCc1ccc(F)cc1)c1cccc(NC(=O)c2ccccc2)c1,"inconclusive: 50.1 µM [inhibitor, single point]"
4,Cc1ccc(CN2C(=O)c3ccccc3NC2c2ccccn2)cc1 (stereo not drawn),inactive
5,CN(C1CCCCC1)S(=O)(=O)Cc1ccccc1,"inconclusive: 31.6 µM [inhibitor, partial curve]"
6,O=C(Nc1ccc(Cl)cc1F)c1ccc(COc2c(F)c(F)c(F)c(F)c2F)o1,"inconclusive: 14.1 µM [inhibitor, partial curve]"
7,Cc1[nH]c(C)c(C(=O)/C=C/c2ccc([N+](=O)[O-])cc2)c1C,"inconclusive: 39.8 µM [inhibitor, single point]"
8,CC1=NN(C(=O)CSCc2ccccc2)C(O)(c2ccc(F)cc2)C1 (stereo not drawn),"inconclusive: 28.2 µM [inhibitor, partial curve]"
9,CC(=O)Cc1nsc(Nc2ccc3c(c2)OCCO3)n1,"inconclusive: 31.6 µM [inhibitor, partial curve]"
10,O=C(Nc1nc(-c2ccncc2)cs1)c1ccc(S(=O)(=O)N2CCOCC2)cc1,"inconclusive: 3.55 µM [inhibitor, full curve, poor fit]"
11,CCC(c1nnnn1C(C)(C)C)N(Cc1ccco1)Cc1cc2cccc(C)c2[nH]c1=O (stereo not drawn),"inconclusive: 8.91 µM [inhibitor, single point]"
12,Cc1ccc(S(=O)(=O)N2CCN(C(=O)CSc3ncc(C(F)(F)F)cc3Cl)CC2)cc1,"inconclusive: 3.98 µM [inhibitor, full curve, poor fit]"
13,CCOc1ccc(OC(=O)c2cn(-c3ccc(C)cc3)c(=O)c3ccccc23)cc1,"inconclusive: 3.55 µM [inhibitor, full curve]"
14,CCN(CCCNC(=O)c1ccc2c(c1)NC(=O)CN2C)c1cccc(C)c1,"inconclusive: 28.2 µM [inhibitor, partial curve]"
15,Cc1c(Cl)ccc2c(C(=O)O)cc(-c3ccccc3)nc12,inactive
16,COc1cc(-c2ccno2)ccc1S(=O)(=O)N1CCN(c2ccc(C(C)=O)cc2)CC1,inactive
17,Cc1cc(OCc2cc(C(=O)N(C)Cc3ccccn3)no2)cc(C)c1Cl,"inconclusive: 35.5 µM [inhibitor, partial curve]"
18,CCc1ccc(C2c3[nH]c4ccccc4c3CCN2C(=O)c2ccc(=O)n(C)n2)cc1 (stereo not drawn),"inconclusive: 7.08 µM [inhibitor, partial curve]"
19,CCOC(=O)c1c(-c2ccc(Br)cc2)csc1NC(=O)c1ccccc1F,inactive
20,Cc1cc(C)cc(Nc2ccc([N+](=O)[O-])nc2[N+](=O)[O-])c1,"inconclusive: 14.1 µM [inhibitor, partial curve]"
21,Cc1ccc2c(C)c(C(=O)N(Cc3ccc(Cl)cc3)C3CCS(=O)(=O)C3)oc2c1 (stereo not drawn),"inconclusive: 3.55 µM [inhibitor, full curve, poor fit]"
